Measured values reported in PubChem BioAssay AID493208 (National Center for Advancing Translational Sciences (NCATS), 2011).
Out of some 44,000 compounds screened, about 340 (0.77%) were called active. Not shown: some 5% with an inconclusive outcome. Calls come from the whole dose curve; as a rule, active = well fitted inhibition curve with a large enough effect; inconclusive = small, poorly fitted or top-dose-only effect; inactive = flat fitted curve, though single readings scatter. This is one part of the list.

experiment: Acumen qHTS Assay for Inhibitors of the mTORC1 Signaling Pathway in MEF (Tsc2-/-, p53-/-) Cells: Sytravon; details: phospho-rpS6 immunofluorescence/PI, 24 h; series mostly up to 38.3 µM; activity change, negative = inhibition: at the top concentration; note: nearly all actives have a fitted effect of over 50% in size;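 for activity change, negative = inhibition: plate controls were DMSO for no effect and rapamycin for full effect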
Procedure, shortened: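 Read-out: phospho-S6 Alexa-488 intensity over PI intensity per well, scored as % active cells using thresholds from rapamycin (7.5 nM) and DMSO controls. Tsc2-/-, p53-/- MEFs exposed to compound for 24 h; PI cell count recorded as viability.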
Potency is the fitted concentration of half-maximal effect.

SMILES	activity change, negative = inhibition	Potency
Cc1cc(C)cc(N(CC(=O)NCCc2ccc(Cl)cc2)S(=O)(=O)c2c(C)noc2C)c1	inactive: 0.0975%	
CN1CCN(C(=O)c2cnn(-c3ccc(F)cc3F)c2C2CCN(C(=O)OC(C)(C)C)CC2)CC1	inactive: 0.631%	
COc1ccc(NC(=O)Nc2nnc(N3CCCC3)s2)cc1	inactive: 2.82%	
Cc1ccc2c(=O)cc(C(=O)N(Cc3ccc(C(C)(C)C)cc3)C3CCS(=O)(=O)C3)oc2c1 (stereo unspecified)	inactive: -8.73%	
Cc1ccc(NC(=O)c2c(C)oc3ccc(O)c(CN4CCOCC4)c23)cc1	inactive: 8.56%	
O=C(c1cc2c(Cl)nc3ccccc3c2s1)N1CCCCC1	inactive: -6.41%	
Oc1ccc(-c2nc3ccc(Cl)cn3c2Nc2ccc(Cl)cc2)cc1	inactive: -4.28%	
COc1ccc(Cn2ccc3nc(C)c(C(=O)NCc4ccc(SC)cc4)cc3c2=O)cc1	inactive: -8.49%	
Cc1ccc(CNS(=O)(=O)c2cnc(N)nc2)cc1	inactive: 2.44%	
Cc1ccccc1NC(=O)Cn1nc(-c2ccccc2)nc(Cc2ccccc2)c1=O	inactive: 0.413%	
COc1ccc(CNC(=O)CSc2nnc(C)c3c(C)n(-c4ccccc4)nc23)c(OC)c1	inactive: -9.11%	
CCc1ccc2ncc3c(-c4ccc(C)cc4)nn(CC(=O)NCc4ccccc4)c3c2c1	inactive: -8.13%	
O=C(CSc1nc2ccccc2n1Cc1cccc(F)c1)NCc1ccccc1	inactive: 0%	
CCOC(=O)c1sc2ncn(CC(=O)Nc3ccc(OC)c(Cl)c3)c(=O)c2c1C	inactive: -20.5%	
COc1ccc(-c2nc3sc(CCNC(=O)C(=O)Nc4ccc(OC)c(OC)c4)c(C)n3n2)cc1	inactive: -2.3%	
Cc1ccccc1Cn1c2ccccc2c2cnn(CC(=O)NC3CCCCCC3)c(=O)c21	inactive: -1.71%	
COc1ccc(Br)cc1Cn1nnc(C(=O)Nc2cccc(SC)c2)c1N	inactive: -1.06%	
CC(C)CCNC(=O)Cn1nc(N2CCN(c3ccccc3)CC2)ccc1=O	inactive: -2.86%	
Cc1ccc(NC(=O)c2ccc(CN3CC(=O)N4CCCCC4C3=O)cc2)c(Cl)c1 (stereo unspecified)	inactive: -14.6%	
COc1ccc(OC)c(C2C(C(=O)Nc3ccc(C)cc3)=C(C)Nc3nnnn32)c1 (stereo unspecified)	inactive: -0.763%	
CN1CCN(C(=O)c2ccc3c(c2)N(Cc2ccc(C(F)(F)F)cc2)C(=O)c2ccccc2S3)CC1	inactive: -10.3%	
CN(CC(=O)Nc1cccc(F)c1)S(=O)(=O)c1ccc2c(c1)n(C)c(=O)c(=O)n2C	inactive: -1.24%	
CC(=O)c1cccc(NC(=O)CSc2ncc3c(n2)-c2cc(Cl)ccc2N(Cc2ccccc2)S3(=O)=O)c1	inactive: 7.9%	
COc1cc(CNC(=O)c2cc3n(n2)CCCN(Cc2cccc(F)c2)C3=O)cc(OC)c1OC	inactive: 0%	

SMILES	activity change, negative = inhibition	Potency
O=C(CC(c1cccs1)N1Cc2ccccc2C1=O)Nc1ccc(F)cc1 (stereo unspecified)	inactive: -10.4%	
CSc1cccc(NC(=O)c2cc3c(COC(C)=O)cnc(C)c3oc2=O)c1	inactive: 24.3%	
COc1ccc(S(=O)(=O)NCc2nc(-c3ccccc3)no2)cc1	inactive: -1.51%	
O=C(CNC(=O)c1ccc(F)cc1)OCc1cc(=O)n2ccsc2n1	inactive: -1.57%	
COc1ccc(C(=O)Nc2ccc3oc(-c4cccc5c(Br)cccc45)nc3c2)cc1	inactive: 4.8%	
Cc1ccccc1Cn1c(CN2CCC(C(=O)NCc3ccc(Cl)cc3)CC2)cc2ccccc21	inactive: 0.362%	
Cc1c(Cl)cccc1NC(=O)C(=O)NCCc1csc(-c2ccc(C(F)(F)F)cc2)n1	inactive: 0.0849%	
O=S1(=O)c2ccccc2N(Cc2ccccc2F)c2ccccc21	inactive: -0.383%	
CCCCN(C)C(=O)c1ccc2c(=O)n3nc(Nc4cc(C)ccc4C)sc3nc2c1	inactive: -1.89%	
Cc1cc(C)cc(NC(=O)COc2cccc3c(=O)n(C)ccc23)c1	inactive: -0.0434%	
COc1ccc(CCNC(=O)c2ccc(-n3c(C)cc4c3CCC(C)C4)cc2)cc1OC (stereo unspecified)	inactive: -17.2%	
O=C(NCc1ccc2c(c1)OCO2)c1ccc2c(c1)N(Cc1c(F)cccc1Cl)C(=O)c1ccccc1S2	inactive: 5.34%	
Cc1cc(C)c(OCC(=O)N(Cc2ccc(N(C)C)cc2)Cc2ccco2)c(C)c1	inactive: -21.9%	
CCOc1ccc(NS(=O)(=O)c2ccc3c(c2)NC(=O)CCS3)cc1	inactive: -10.8%	
COC(=O)c1ccccc1NC(=O)Cn1c(=O)n(CCC(=O)NCc2ccc3c(c2)OCO3)c(=O)c2ccccc21	inactive: 3.5%	
COc1ccc(C(=O)c2cn(CC(=O)Nc3cc(OC)cc(OC)c3)c3ccc(OC)cc3c2=O)cc1	inactive: -14.5%	
Cc1ccc(-c2cn3nc(N4CCCC(C(=O)NCc5ccccc5F)C4)sc3n2)cc1 (stereo unspecified)	inactive: -2.3%	
CC1=C(C(=O)OC2CCCC2)C(c2c(F)cccc2Cl)CC(=O)N1 (stereo unspecified)	inactive: -2.3%	
Cc1ccc(Cn2nc3n(c2=O)-c2cc(Cl)ccc2OC3)cc1	inactive: -3.51%	
COc1ccc(-n2c(-c3cccc(F)c3)nc3c(cnn3-c3ccc(C)cc3)c2=O)cc1	inactive: -6.1%	
Cc1ccc(-c2csc(-c3c(N)c(C(=O)c4ccc5c(c4)OCO5)n4ccccc34)n2)cc1	inactive: -0.279%	
CCOC(=O)c1c(S(=O)(=O)N2CCC(C(=O)NCc3cccc(OC)c3)CC2)c(C)n(C)c1C	inactive: 0.0466%	
Cc1cccc(N(C)C(=O)Cn2c(=O)oc3cc(S(=O)(=O)N4CCCCC4)ccc32)c1	inactive: 5.35%	
COc1ccc(-c2nc3ccccc3o2)cc1NC(=O)Cc1ccc(Cl)cc1	inactive: 2.44%	

SMILES	activity change, negative = inhibition	Potency
COc1cccc(N2C(=O)C(CC(=O)Nc3cccc(F)c3)N(C3CCCC3)C2=O)c1 (stereo unspecified)	inactive: -3.31%	
Cn1ccnc1SCC(=O)Nc1cccc(Br)c1	inactive: 2.96%	
COC(=O)c1ccc(NC(=O)Cn2c(=O)oc3ccccc32)cc1	inactive: 4.38%	
Cc1nc2ccn(Cc3ccco3)c(=O)c2cc1C(=O)NCc1ccc(Cl)cc1	inactive: -14.8%	
NC(=O)c1cc(S(=O)(=O)NCc2cccc(Br)c2)cs1	inactive: 2.02%	
Cc1ccc(CNC(=O)c2ccc3c(c2)CCN3S(=O)(=O)c2ccc(Br)cc2)cc1	inactive: -9.23%	
COc1ccc(C2CC(=O)c3cc(-c4nc(-c5cccc([N+](=O)[O-])c5)cs4)c(=O)n(-c4ccccc4N)c3C2)cc1 (stereo unspecified)	inactive: -10.7%	
COc1ccc(N2CC(NC(=O)C3CCCCC3)CC2=O)cc1 (stereo unspecified)	inactive: 0.0318%	
CCn1c(SCC(=O)Nc2cc(C)ccc2F)nnc1-c1ccccc1O	inactive: -3.53%	
CCN(c1ccc(OC)cc1)S(=O)(=O)c1ccc2[nH]c3c(c2c1)CCCCC3	inactive: -10.9%	
CCOC(=O)CNC(=O)N1CCN(S(=O)(=O)c2ccc3c(ccn3C)c2)CC1	inactive: -0.543%	
COc1ccc(CC(=O)N2CC(=O)Nc3ccc(F)cc3C2c2ccccc2)cc1 (stereo unspecified)	inactive: 18.1%	
CC(=O)c1ccc(NC(=O)C2CCN(S(=O)(=O)c3ccc4[nH]c5c(c4c3)CCCCC5)CC2)cc1	inactive: 1.19%	
Cc1ccccc1CNC(=O)Cn1c(=O)c2cccn2c2cccnc21	inactive: 2.91%	
COc1ccccc1CNC(=O)c1ccc(N2CCCC2)c(NC(=O)NCc2ccc(C)cc2)c1	inactive: 13.5%	
CCCOc1ccc(C2c3c(oc4ccccc4c3=O)C(=O)N2c2nnc(C(C)C)s2)cc1 (stereo unspecified)	inactive: -0.0854%	
COc1ccc(C2=NC(c3ccccc3)=Nc3ccc(C)cc3N2)cc1	inactive: -3.47%	
CCc1ccc(CNC(=O)C2CCN(c3nn4cc(-c5ccc(OC)cc5)nc4s3)CC2)cc1	inactive: 0%	
COC(=O)c1ccccc1NC(=O)c1ccc(CN2CC(=O)N3CCCCC3C2=O)cc1 (stereo unspecified)	inactive: -6.31%	
COc1ccccc1N1CCN(CC(O)COc2ccc(Cl)c(C)c2)CC1 (stereo unspecified)	inactive: -10.5%	
COc1ccc(NC(=O)CSc2nnc(-c3ccncc3)n2-c2ccccc2)cc1	inactive: 0.878%	
CN1CCN(C(=O)c2ccc3c(c2)N(Cc2ccc(F)cc2)C(=O)c2ccccc2S3(=O)=O)CC1	inactive: -5.7%	
CCC(C)NC(=O)c1c2c(nc3ccccc13)C(=O)N(C1CCCCC1)C2 (stereo unspecified)	inactive: -6.67%	
O=C(CSc1n[nH]c(-c2ccc(F)cc2)n1)N1CCN(c2ccc(F)cc2)CC1	inactive: 0%	

SMILES	activity change, negative = inhibition	Potency
CCOC(=O)c1cc(S(=O)(=O)Nc2ccccc2)[nH]n1	inactive: 0.72%	
CCOC(=O)N[C@H](Cc1c[nH]c2ccccc12)C(=O)Nc1cccc(Cl)c1	inactive: 2.41%	
COc1ccc(OC)c(NC(=O)c2nc(S(=O)(=O)Cc3ccc(F)cc3)ncc2Cl)c1		active: 2930 nM
CCc1ccc(C2CC(=O)Nc3c2c(=O)n(C)c2ncnn32)cc1 (stereo unspecified)	inactive: 4.36%	
CC(C)Oc1ccc(CNC(=O)C2=Cc3ccccc3OC2)cc1	inactive: 3.47%	
COc1ccc(C(=O)c2cn(CC(=O)Nc3cc(C)ccc3C)c3nc(C)ccc3c2=O)cc1	inactive: 2.41%	
CCOCCCN(Cc1ccco1)C(=O)c1cc2c(s1)-c1c(C)cccc1OC2	inactive: -5.18%	
NC(=O)C1CCN(c2csc3ccc(F)cc3c2=O)CC1	inactive: -0.48%	
CCn1c(CN2CCN(C)CC2)nc2cc(NC(=O)c3ccc([N+](=O)[O-])cc3)ccc21	inactive: -7.76%	
COc1ccc(N2CCN(C(CNC(=O)c3ccc(OC)c(OC)c3)c3cccnc3)CC2)cc1 (stereo unspecified)	inactive: 3.5%	
Cc1ccc(NC(=O)CN(Cc2ccccc2)S(=O)(=O)c2ccc3nc(C)sc3c2)c(C)c1	inactive: 2.58%	
Cc1ccc(-c2nc(CSc3nnc(C)n4c3cc3occc34)c(C)o2)cc1	inactive: -2.99%	
Cc1cccc2nc(-c3ccccn3)c(Nc3ccccc3)n12	inactive: -10.5%	
CCCCOC(=O)c1ccc(-n2nnc3c(sc4nc(C)cc(C)c43)c2=O)cc1	inactive: 0.404%	
COc1ccc(CNC(=O)c2c(O)nc3c(C)cccn3c2=O)cc1	inactive: -6.32%	
CN(C)c1ccc(CNC(=O)CCCN2C(=O)c3cccnc3Oc3ccc(Cl)cc32)cc1	inactive: -13.4%	
CC(C)Cn1cc(NC(=O)N2CCN(c3cccc(C(F)(F)F)c3)CC2)c2ccccc2c1=O	inactive: 6.98%	
Cc1cc(N2CCC(C)CC2)nc2ccc(NC(=O)Cc3ccccc3Br)cc12	inactive: 0%	
O=S(=O)(NCCc1nnc2ccc(SCc3ccccc3Cl)nn12)c1ccccc1	inactive: 3.36%	
CCOc1ccc(-c2nc(-c3ccccc3)c(-c3ccccc3)[nH]2)cc1OCC	inactive: 1.34%	
COc1cc2nc(Nc3cccc(F)c3)nc(N)c2cc1OC	inactive: -27.5%	
Cc1ccc2oc(-c3ccc(C)c(NC(=O)/C=C/c4ccco4)c3)nc2c1	inactive: -2.37%	
N#Cc1ccccc1CSc1nnc(-c2ccc(Br)cc2)o1	inactive: -1.68%	
Cc1ccc(CNC(=O)Cn2ccn(-c3cccc(Cl)c3)c(=O)c2=O)cc1	inactive: 2.86%	
